Patent US20240374749A1, “ANTIBODY-EXATECAN CONJUGATES” (Glykos Finland Oy, priority 2023, published 2024)

B1: LNExM: lintuzumab-exatecan ADC with ExM linker-payload, DAR close to 8; 01/02 are batches (conjugate, chains of the INN, looked up)
heavy: QVQLVQSGAEVKKPGSSVKVSCKASGYTFTDYNMHWVRQAPGQGLEWIGYIYPYNGGTGYNQKFKSKATITADESTNTAYMELSSLRSEDTAVYYCARGRPAMDYWGQGTLVTVSS[letters of human IgG1 constant region left out]
light: DIQMTQSPSSLSASVGDRVTITCRASESVDNYGISFMNWFQQKPGKAPKLLIYAASNQGSGVPSRFSGSGSGTDFTLTISSLQPDDFATYYCQQSKEVPWTFGQGTKVEIKRTVAAPSVFIFPPSDEQLKSGTASVVCLLNNFYPREAKVQWKVDNALQSGNSQESVTEQDSKDSTYSLSSTLTLSKADYEKHKVYACEVTHQGLSSPVTKSFNRGEC
modifications: exatecan ExM linker-payload, DAR 8
notes: lintuzumab-exatecan ADC with ExM linker-payload, DAR close to 8; 01/02 are batches
B2: LNExMu: ADC from lintuzumab antibody and ExMu linker-payload comprising the PABC self-immolative group (conjugate, chains of the INN, looked up)
heavy: B1 heavy
light: B1 light
modifications: exatecan ExMu PABC linker-payload
notes: ADC from lintuzumab antibody and ExMu linker-payload comprising the PABC self-immolative group

Experiments:
MOLM-13 cells = test: MOLM-13 xenograft model
Experimental: The study was performed at the TCDM, University of Turku, Finland, according to the appropriate ethical committee approval. Cells for inoculation to mice were prepared in vigorous exponential growth phase. 2 million MOLM-13 cells in 50% Matrigel were inoculated s.c. to the flank of each mouse (female athymic nude mice between 8-10 weeks of age). Clinical signs and general behavior of the animals were observed regularly. […] Tumor growth was followed by palpation. After caliper measurement, tumor volume was calculated according to 0.5×length×width^2. […] Mice were evenly divided into study groups, 6 mice in each group, so that each group received similar distribution of different-sized tumors and the average tumor volumes were similar in each group. Intravenous (i.v.) treatment in PBS was given once on day 1 of treatment as a single dose regimen (on day 8 after tumor inoculation). The experiment lasted to day 46 after treatment (day 54 after tumor inoculation).

[1] = tested on: CD33+ MOLM-13 leukemia cells; test: In vitro cytotoxicity assay, Example 4 (FIG. 3B); type: cell-based; settings: MOLM-13 cells, DAR=8
Experimental: HER2+ SK-BR-3 breast cancer cells (ATCC) and CD33+ MOLM-13 leukemia cells (DSMZ, German Collection of Microorganisms and Cell Cultures) were cultured essentially according to the providers' instructions. […] FIG. 3A: HER2+ SK-BR-3 breast cancer cells were incubated with trastuzumab-exatecan ADC TRExM01, trastuzumab-deruxtecan ADC TRDxM01 and free exatecan payload (provided as mesylate salt). […] FIG. 3B: CD33+ MOLM-13 leukemia cells were incubated with lintuzumab-exatecan ADC LNExM01 and lintuzumab-deruxtecan ADC TRDxM01.

[2] = Aqueous solubility / attainable concentration of ADC on purification and concentration; type: physicochemical; settings: aqueous buffer
[3] = single i.v. 10 mg/kg dose, day 54 after inoculation

Molecule	tumor growth inhibition (in words) (MOLM-13 cells; single i.v. 10 mg/kg dose, s.c. tumors about 120 mm^3)	tumor-free mice at the end of the study (mice out of 6) (MOLM-13 cells; [3])	tumor-free mice at the end of the study, % (MOLM-13 cells; [3]) [%]	deaths due to tumor growth (mice out of 6) (MOLM-13 cells; single i.v. 10 mg/kg dose, death on day 47 after tumor inoculation)	signs of toxicity (MOLM-13 cells; single i.v. dose, clinical signs and general behavior)	cytotoxicity (in words) [1]	maximum concentration reached in purification and concentration attempts [2] [mg ADC/ml]
B1	even more effective than LNDxM in reducing the average tumor volumes	5/6	83	no deaths occurred	No signs of toxicity were recorded	more cytotoxic to the CD33+ leukemia cells than LNDxM01	–
B2	–	–	–	–	–	–	0.36
